Measured values from patent US20250326835A1, “USE OF ANTI-CLAUDIN-1 ANTIBODIES TO TREAT CHOLANGIOCARCINOMA” (Alentis Therapeutics AG, priority 2022, published 2025).

Columns and labels:
[1] = system: HuCC-A1 tumor tissue from CDX mice; experiment: RNA-seq / gene set enrichment analysis of HuCC-A1 CDX tumor tissue; assay type: in vivo, mouse; conditions: HuCC-A1 CDX tumors, treated vs control, GSEA
Description: To elucidate the molecular mechanisms underlying the anti-tumor effect provided by anti-CLDN1 mAb (H3L3), RNA-sequencing (RNA-seq) was performed on the HuCC-A1 tumor tissue from CDX mice.
Gene Set Enrichment Analysis (GSEA) was used for unbiased pathway analysis using the Molecular Signature Database (MSigDB v. 7.4). For evaluation of anti-CLDN1 mAb H3L3 treatment effects in the HuCC-A1 CDX mouse model, samples derived from anti-CLDN1 H3L3 mAb treated animals (n=5 mice) were compared to respective control samples of the same model (n=5 mice). Results from GSEA were adjusted for the false discovery rate (FDR). An FDR<0.05 was considered statistically significant.
To further understand and confirm the effect of anti-CLDN1 mAb treatment on the identified oncogenic signaling pathways, gene set enrichment analysis (GSEA) was applied for unbiased pathway analysis using the Molecular Signature Database (MSigDB v. 7.4) in the HuCC-A1 CDX mouse tumors. Samples derived from anti-CLDN1 mAb H3L3 treated animals (n=5 mice) were compared to respective control samples of the same model (n=5 mice). Results from GSEA were adjusted for the false discovery rate (FDR). An FDR<0.05 was considered statistically significant.

[2] = system: HuCC-T1 cells; experiment: Transwell Matrigel invasion assay, HuCC-T1; assay type: cell-based, human; conditions: HuCC-T1, 20 μg/mL for 3 days vs isotype control mAb; p=0.02
Description: In an additional study, a transwell invasion assay was used to assess the effect of anti-CLDN1 mAb H3L3 treatment on cancer invasion. In this assay, EGI-1 or HuCC-T1 cells were seeded in 12 well plates and treated with 20 μg/mL isotype control mAb or with 20 μg/mL anti-CLDN1 mAb H3L3 (Colpitts et al., 67(4) Gut 736-745 (March 2017)) for 3 days. 0.5×10^5 cells were then seeded in transwells (8-μm pore polycarbonate membrane insert) in 24-well dishes with 75 μl Matrigel (Corning) and serum-free medium (1:20). Following solidification for 10 minutes in the incubator (37° C., 5% CO2), 600 μL of 1% serum-supplemented medium was added to the bottom wells. Non-invading cells were removed by scrubbing with cotton swabs, and invading cells were fixed using 70% ethanol and stained with crystal violet (0.2%) after 72 hours. Cells on the underside of the membranes were then visualized in 5 randomly selected fields and quantified using ImageJ. Each experiment was independently repeated at least three times.

[3] = system: patient-derived CCA tumor tissues; experiment: CCA patient-derived xenograft (PDX) mouse model, tumor growth; assay type: in vivo; conditions: PDX NRG mice, 25 mg/kg i.p. once per week vs PBS; p<0.05
Excerpt: On the other hand, molecular drivers and treatment responses strongly vary between different CCA subclasses and patients (Banales et al., 17 Nat Rev Gastroenterol Hepatol 557-588 (2020)). […] Thus, a PDX mouse model was established to evaluate the anti-CLDN1 mAb H3L3 anti-tumoral efficacy and response rate.
Non-Obese Diabetic Rag1^−/−IL2Rgc^−/− (NRG) were subcutaneously injected with fresh tumor tissues cut into small pieces (approximately 2-3 mm in diameter). When the average tumor volumes reached 40 mm^3, mice were randomized into two different groups and treated with the anti-CLDN1 mAb H3L3 (25 mg/kg i.p. once per week, n=10 mice), or with vehicle control (PBS i.p. once per week, n=11 mice). Tumor growth was monitored using a digital caliper and tumor volume was calculated using the ½(length×width^2) formula.

[4] = system: intrahepatic CCA cell line (HuCC-A1); experiment: Wound healing (cell migration) assay, HuCC-A1 co-cultured with LX2; assay type: cell-based, human; conditions: HuCC-A1/LX2 co-culture, 20 μg/mL vs isotype control mAb; p=0.02
Description: (§1) Next, the effect of anti-CLDN1 mAb H3L3 on cell migration was assessed in a cell-based wound healing assay using an extrahepatic CCA cell line (KKU100), and an intrahepatic CCA cell line (HuCC-A1).
(§2) In the wound healing assay, 1.5×10^5 CCA cells were co-cultured in 12 well plates (Corning) with LX2 in a ratio of 1:1 to reproduce the stromal architecture seen in CCA tumors. Co-cultures were treated for 3 days with 20 μg/mL isotype control mAb or with 20 μg/mL anti-CLDN1 mAb H3L3. At day 3, wounds were created in the confluent cell monolayer using a pipette tip. Cells were then washed once with PBS to remove debris and covered with 1% FBS media and treated again with 20 μg/mL isotype control mAb or with 20 μg/mL anti-CLDN1 mAb H3L3. Plates were incubated at 37° C. and wounds were imaged at 0, 24 and 48 h. Relative percent of wound closure was measured using ImageJ. Each experiment was independently repeated at least three times.

[5] = system: extrahepatic CCA cell line (KKU100); experiment: Wound healing (cell migration) assay, KKU100 co-cultured with LX2; assay type: cell-based, human; conditions: KKU100/LX2 co-culture, 20 μg/mL vs isotype control mAb; p=0.02
Description: as §1, §2

[6] = system: metastatic HuCC-T1 CCA cells; experiment: CCA lung metastasis mouse model, intravenous HuCC-T1 cells, CK18 staining; assay type: in vivo; conditions: NRG mice, 25 mg/kg i.p. twice per week for 6 weeks vs PBS; p<0.05
Description: To assess the in vivo activity of the anti-CLDN1 mAb (H3L3) on invasion and metastasis, treatment with the anti-CLDN1 antibody was investigated in a state-of-the-art mouse model for CCA metastasis based on intravenous injection of metastatic HuCC-T1 CCA cells.
Non-Obese Diabetic Rag1^−/−IL2Rgc^−/− (NRG) mice were treated with anti-CLDN1 mAb H3L3 (Colpitts et al., 67(4) Gut 736-745 (March 2017)) (25 mg/kg i.p.), or vehicle control (PBS i.p.) 1 day before intravenous injection of 0.5×10^6 h HuCC-T1 cells through the retro-orbital vein. Mice were randomized into two groups and treated for 6 weeks with anti-CLDN1 mAb H3L3 (Colpitts et al., 67(4) Gut 736-745 (March 2017)) (25 mg/kg i.p. twice per week) or vehicle control (PBS i.p. twice per week). After 6 weeks, mice were sacrificed, lungs were harvested, and cytokeratin 18 (CK18) staining was used to identify and quantify CK18-positive cholangiocarcinoma metastasis in the lungs (FIG. 5A).

B1: anti-CLDN1 mAb H3L3: humanized anti-Claudin-1 monoclonal antibody; heavy chain SEQ ID NO: 11, light chain SEQ ID NO: 12 (VH SEQ 13, VL SEQ 14) (antibody)
heavy: QVQLVESGGGVVQPGRSLRLSCLGSGFSFSSYGMNWVRQAPGKGLEWVASISPSGSYFYYADSVKGRFTISRDNSKNTLYLQMTSLRAEDTAIYYCARLPGFNPPFDHWGQGTLVTVSSASTKGPSVFPLAPSSKSTSGGTAALGCLVKDYFPEPVTVSWNSGALTSGVHTFPAVLQSSGLYSLSSVVTVPSSSLGTQTYICNVNHKPSNTKVDKRV[no letters for human IgG1 Fc]
light: DIQMTQSPSSLSASVGDRVTITCKASQNVGGNVDWYQWKPGKAPKLLIYGASNRYTGVPDRFRGSGSGTDFTLTISSLQPEDVATYYCLQYKNNPWTFGGGTKVEIKRTVAAPSVFIFPPSDEQLKSGTASVVCLLNNFYPREAKVQWKVDNALQSGNSQESVTEQDSKDSTYSLSSTLTLSKADYEKHKVYACEVTHQGLSSPVTKSFNRGEC
modifications: H3L3 Heavy Chain; H3L3 Light Chain
- expression of downstream target and effector genes of YAP/TAZ, FAK, SRC and Notch1 signaling pathways [1]: markedly downregulated
- gene sets associated with cell survival, metabolism and differentiation, including EMT [1]: markedly downregulated
- key oncogenic signaling pathways (TNF-α/NF-κB, TGF-β, IL-6/JAK/STAT3, PI3K/Akt/mTOR) [1]: strong suppression
- number of invasive cells [2]: markedly and significantly decreased
- tumor growth (tumor volume) [3]: markedly and significantly slowed tumor growth
- CCA cell migration (wound closure) [4]: significantly and specifically decreased CCA cell migration
- CCA cell migration (wound closure) [5]: significantly and specifically decreased CCA cell migration
- CK18 positive area in lung sections [6]: decrease
- metastasis formation in lungs [6]: significantly reduced
